Reference: PubChem BioAssay AID651820 (National Center for Advancing Translational Sciences (NCATS), 2012)
Where “and” joins values, the source holds several entries; their conditions need not be identical. Equal values may be shown once. About 12,000 (3.5%) of roughly 340,000 compounds were called active. The inconclusive results got no clear call from the source; some entries with a clear call stand among them for comparison. Calls follow the shape of the dose curve; as a rule, active = well fitted inhibition curve with a large enough effect; inconclusive = small, poorly fitted or top-dose-only effect, or another doubt; inactive = no such curve, though single readings can be large or run the other way. Potencies of inconclusive entries are doubtful fits and often do not repeat.

Assay: qHTS Assay for Inhibitors of Hepatitis C Virus (HCV)
Settings: Huh7.5.1 HCVcc-Cre (HCVcc is cell-culture hepatitis C virus) infection, luciferase reporter, 44 h; activity change, negative = inhibition: at 41.8 µM (top of the series) unless noted
Method in brief: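 Seed cells (1,000/well) for 4 h; treat with compound and infect with HCVcc-Cre, moi about 0.5. Incubate 44 h, then detect luciferase activity.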
% is scaled to controls: 0 for no effect and ±100 for the full control effect; potency is read from the fitted curve at half-maximal effect; tags tell the direction and shape of the fitted curve.

SMILES	Potency	activity change, negative = inhibition
N#C/C(=C/c1ccc(Sc2nc3ccccc3[nH]2)o1)c1cccc(Br)c1	active: 8.91 µM	–
CCN(CC(=O)Nc1c(F)cccc1F)C(=O)c1ccc(S(=O)(=O)N2CCC(C)CC2)cc1	–	inactive: 14.7%
CC(=O)c1ccc(NC(=O)C(Cc2ccccc2)n2cccc2)cc1 (stereo unspecified)	–	inactive: 1.89%
CCOc1ccc2nc(NC(=O)C3CCCN(S(=O)(=O)c4c(C)noc4C)C3)sc2c1 (stereo unspecified)	active: 11.2 µM	–
N#Cc1cc(C(=O)c2ccccc2OCC(=O)Nc2ccccc2Cl)cn(C2CCCCC2)c1=O	inconclusive: 35.5 µM [inhibitor, single point]	–
Cc1ccoc1C(=O)Nc1ccc2ccccc2c1	inconclusive: 31.6 µM [inhibitor, single point]	–
Cc1cccc(-n2cc(CN(C)Cc3nccn3C)c(-c3cccc(F)c3)n2)c1	inconclusive: 31.6 µM [inhibitor, single point]	–
CCOC(=O)Nc1ccc(C(=O)c2ccncc2)cc1	–	inactive: 24.8%
COn1c2c(c3c4nonc4ccc31)CCCC2	inconclusive: 11.2 µM [inhibitor, partial curve]	–
CNC(=S)N/N=C(\C)c1ccc2c(c1)OCCO2	inconclusive: 0.355 µM [inhibitor, full curve]	–
CCN(CC)S(=O)(=O)c1ccc(S(=O)(=O)N(CC(=O)Nc2ccccc2)Cc2ccco2)cc1	inconclusive: 12.6 µM [inhibitor, single point]	–
Cc1cc(C)nc(/N=C(\N)Nc2cccc(OCc3ccccc3)c2)n1	inconclusive: 10 µM [inhibitor, partial curve]	–
O=C1c2cccc(OCC(=O)N3CCCc4ccccc43)c2CCN1Cc1ccc(Br)cc1	inconclusive: 14.1 µM [inhibitor, single point]	–
C=CS(=O)(=O)c1ccc(Oc2ccc(S(=O)(=O)C=C)cc2)cc1	inconclusive: 10 µM [inhibitor, partial curve] and inconclusive: 2.82 µM [inhibitor, full curve]	–
Cc1cccc(C(=O)NC(C)C(c2cccs2)N2CCOCC2)c1 (stereo unspecified)	–	inactive: 4.35%
O=C1c2cc([N+](=O)[O-])ccc2-c2cc(Cl)c(NC(=O)C(F)(F)F)cc21	inconclusive: 35.5 µM [inhibitor, partial curve]	–
Cc1ccc(S(=O)(=O)N2CCN(C(=O)C3CCN(C(=O)c4ccccc4C)CC3)CC2)cc1C	inconclusive: 0.501 µM [inhibitor, full curve, poor fit]	–
Cc1ccccc1N1CCN(C2CCCN(C(=O)c3noc4c3CCCC4)C2)CC1 (stereo unspecified)	inconclusive: 31.6 µM [inhibitor, single point]	–
O=S(=O)(c1ccc(Cl)cc1)N1CCN(c2ncnc3sccc23)CC1	inconclusive: 20 µM [inhibitor, partial curve, poor fit]	–
CCn1cc(Cl)c(C(=O)N2N=C(c3ccc4ccccc4c3)CC2c2ccccc2O)n1 (stereo unspecified)	inconclusive: 12.6 µM [inhibitor, single point]	–
COCCn1c(-c2ccc3ccccc3c2)nc2c1c(=O)[nH]c(=O)n2CC(C)C	inconclusive: 31.6 µM [inhibitor, single point]	–
CSc1ccc(/C=N/N2CCN(Cc3ccc(Cl)cc3)CC2)cc1	–	inactive: 9.68%
COc1cc(/C=C/C(=O)OC(C)C(=O)NC2CCCCC2C)cc(Cl)c1OC (stereo unspecified)	inconclusive: 31.6 µM [inhibitor, single point]	–
CSc1nc2ccc3nc(NC(=O)c4ccc(C)cc4)sc3c2s1	–	inactive: -9.43%

SMILES	Potency	activity change, negative = inhibition
CCOc1cc(C(=O)Nc2ccncc2)cc(OCC)c1OCC	inconclusive: 2.82 µM [inhibitor, full curve, poor fit]	–
COc1ccc2nc(NC(=O)Nc3ccccc3)sc2c1	inactive	–
Cc1ccc(C(=O)CSc2nnc(COc3ccc(C#N)cc3)n2-c2ccccc2)cc1	–	inactive: 10.7%
CCN1CCN(C(=S)Nc2ccc3nc(N4CCN(C)CC4)cc(C)c3c2)CC1	inconclusive: 11.2 µM [inhibitor, partial curve]	–
CCn1cc(C(=O)NCc2ccccc2OC)c(=O)c2cc(S(=O)(=O)N(C)C)ccc21	active: 14.1 µM	–
CC1CCN(c2ccccc2NC(=O)c2ccc([N+](=O)[O-])o2)CC1	–	inactive: -26.3%
COc1cc2c(cc1OC)CN(CCOc1ccc(Br)cc1)CC2	inconclusive: 31.6 µM [inhibitor, single point]	–
Cc1nonc1NC(=O)N1CCCC1	–	inactive: 20.1%
C=C(C)C1CC=C(C)/C(=N/NC(=O)c2cccc([N+](=O)[O-])c2)C1 (stereo unspecified)	inconclusive: 14.1 µM [inhibitor, single point]	–
COc1cc(CNc2nc3c(C)cc(C)cc3s2)ccc1O	inconclusive: 22.4 µM [inhibitor, single point]	–
COc1ccccc1CCc1nnc(CCC(=O)NC(C)Cn2nc(C)cc2C)o1 (stereo unspecified)	–	inactive: 0.0263%
CCN(CC)C(=O)CSc1nc2c(sc(=S)n2-c2ccccc2)c(=O)n1Cc1ccco1	active: 10 µM	–
COc1ccc(NC(=O)CSc2nc(N3CCCCC3)nc(N3CCCCC3)n2)cc1	inconclusive: 2.24 µM [inhibitor, full curve, poor fit]	–
Cc1ccc(NC(=O)/C(C#N)=N/Nc2ccc(C(=O)O)cc2)c(C)c1	–	inactive: 3.44%
Cc1ccccc1NC(=O)c1ccc([N+](=O)[O-])o1	inconclusive: 31.6 µM [inhibitor, single point]	–
Cc1ccc(-c2nc(C=Nc3ccc(O)cc3)c(O)o2)cc1	inconclusive: 12.6 µM [inhibitor, single point]	–
O=[N+]([O-])c1cccnc1N/N=C/c1ccccc1O	inconclusive: 31.6 µM [inhibitor, single point]	–
CC(=O)Nc1nc2n(n1)C(c1ccc(F)cc1)C=C(c1ccccc1)N2 (stereo unspecified)	–	inactive: 25.9%
COc1ccc(C2CC(c3cccs3)=NN2S(C)(=O)=O)cc1OC (stereo unspecified)	inconclusive: 2.24 µM [inhibitor, single point]	–
O=c1c2ccccc2nc(-c2ccco2)n1CCc1ccc(O)cc1	inconclusive: 25.1 µM [inhibitor, single point]	–
CSc1nc(-c2ccccc2)c(-c2ccccc2)[nH]1	inconclusive: 11.2 µM [inhibitor, single point]	–
CC(=O)CCc1ccc(Oc2nc(-c3cccnc3)nc3ccccc23)cc1	inconclusive: 14.1 µM [inhibitor, single point]	–
OCC1(CCOc2ccccc2)CCN(Cc2ccccc2C(F)(F)F)CC1	–	inactive: 5.72%
O=c1c2ccccc2oc2cc(NCCCN3CCOCC3)ccc12	inconclusive: 11.2 µM [inhibitor, single point]	–

SMILES	Potency	activity change, negative = inhibition
OCCCn1c(-c2ccccc2)csc1=Nc1ccccc1	inconclusive: 11.2 µM [inhibitor, single point]	–
CCn1c(SCC(=O)Nc2cc(C)on2)nc2sc3c(c2c1=O)CCCC3	inconclusive: 8.91 µM [inhibitor, partial curve]	–
C#CCOCCOCCOCCNc1nc(N2CCN(C(=O)[C@H](CCCCN)n3cc(CC(C)O)nn3)CC2)nc(N2CCN(C(=O)[C@H](Cc3ccc(O)cc3)n3cc(CCO)nn3)CC2)n1 (stereo partly specified)	–	inactive: 13.1%
CN(CC(=O)Nc1ccc(F)c(F)c1F)C(=O)/C=C/c1ccco1	–	inactive: 2.07%
Cc1ccc(S(=O)(=O)N2CCCCC2)cc1NC(=O)COC(=O)CN1C(=O)NC2(CC(C)CC(C)(C)C2)C1=O (stereo unspecified)	–	inactive: 18.9%
N#CC(=C=[N-])c1nc2ccccc2nc1-[n+]1cccc(NC(=O)c2cccs2)c1	–	inactive: -26.7%
CCC(=O)Nc1cccc(C(=O)/C=C/c2ccccc2)c1	–	inactive: -26.2%
COC(=O)c1ccc(N)c(N=CC2=C(O)CC(C)(C)CC2=O)c1	–	inactive: 20.1%
Cc1nc(SCC(=O)NC(=O)NCCC(C)C)c2c(-c3cccs3)csc2n1	inconclusive: 2.82 µM [inhibitor, single point]	–
CCCc1ccc(S(=O)(=O)NCCc2ccncc2)cc1	inconclusive: 1.41 µM [inhibitor, full curve, poor fit]	–
CC1CCCC(NC(=O)CN2C(=O)NC(C)(c3cc(F)ccc3F)C2=O)C1C (stereo unspecified)	–	inactive: -2.33%
CC(=O)/C(=C/c1ccccc1)C(=O)Nc1ccccc1C	inconclusive: 22.4 µM [inhibitor, single point]	–
COc1ccc(C(=O)N/N=C(\C)CC(=O)N2CCN(C=O)CC2)cc1	–	inactive: -12.5%
COCCCNC(=O)c1cc2c(-c3ccc(Cl)cc3)nn(C)c2s1	inconclusive: 14.1 µM [inhibitor, single point]	–
CC(=O)OC1N=C(c2ccccc2)c2cc(Br)ccc2N(C)C1=O (stereo unspecified)	–	inactive: 18.5%
CCOc1ccccc1NC(=O)/C=C/c1ccccc1[N+](=O)[O-]	inconclusive: 7.08 µM [inhibitor, partial curve]	–
O=C(NC1CCCCC1)C1CCCN(c2nnnn2-c2ccccc2)C1 (stereo unspecified)	inconclusive: 0.501 µM [inhibitor, full curve, poor fit]	–
Oc1ccc(N=Nc2ccc3c(c2)OCCO3)c2cccnc12	inconclusive: 10 µM [inhibitor, partial curve]	–
CC(=O)c1ccc(NC(=O)c2cc(Cl)nc3ccccc23)cc1	inconclusive: 0.501 µM [inhibitor, full curve]	–
COc1ccc(/C(O)=C2/C(=O)C(=O)N(CCN3CCOCC3)C2c2ccccn2)cc1OC (stereo unspecified)	inconclusive: 31.6 µM [inhibitor, single point]	–
O=C(/C=C/c1ccccc1Cl)NCc1ccco1	–	inactive: -8.18%
C=CCn1c(C)cc(C(=O)COc2ccc(C)nc2[N+](=O)[O-])c1C	inconclusive: 10 µM [inhibitor, partial curve]	–
COc1ccc(C(=O)Nc2nccs2)cc1	–	inactive: 2.23%
